The results in this text go back to patent publication US20110059013A1, “ANTI-ROBO4 ANTIBODIES AND USES THEREFOR” (Genentech, Inc., priority 2007, published 2011).

The test system of assay [1] is human non-small cell lung carcinoma SK-MES-1. In words: In vivo tumor growth, SK-MES-1 xenograft. More on the design: species or system mouse. To be noted: naked antibody, 10 mg/kg i.p. twice weekly for 5 weeks, nude mice. On the procedure: (§1) For this study, each HRLN female nude mouse received a 1 mm^3 tumor fragment s.c. implant in the flank. Tumor growth was monitored twice weekly by caliper measurements. When tumors reached an average size of 80-120 mm^3, mice were sorted to give nearly identical group mean tumor sizes, and treatment was started (Day 1). Animals were dosed twice weekly i.p. with 10 mg/kg anti-Robo4 and/or 5 mg/kg anti-VEGF or control antibody for 5 weeks. All treatments were body weight-adjusted at 0.2 mg/20 g.

In assay [2] the test system is MDA-MB-231 breast cancer xenograft. In words: In vivo tumor growth, MDA-MB-231 breast cancer xenograft. Particulars: naked antibody, Fo5 mouse model with MDA-MB-231 xenograft. Here is the method: as §1
The target in assay [3] is T1, murine Robo4 expressed endogenously in MS1 cells (Mus musculus, UniProt Q8C310).
T1 construct: endogenous in cells; host or cells: MS1 mouse microvascular endothelial cells
T1 sequence (Q8C310 28-1012): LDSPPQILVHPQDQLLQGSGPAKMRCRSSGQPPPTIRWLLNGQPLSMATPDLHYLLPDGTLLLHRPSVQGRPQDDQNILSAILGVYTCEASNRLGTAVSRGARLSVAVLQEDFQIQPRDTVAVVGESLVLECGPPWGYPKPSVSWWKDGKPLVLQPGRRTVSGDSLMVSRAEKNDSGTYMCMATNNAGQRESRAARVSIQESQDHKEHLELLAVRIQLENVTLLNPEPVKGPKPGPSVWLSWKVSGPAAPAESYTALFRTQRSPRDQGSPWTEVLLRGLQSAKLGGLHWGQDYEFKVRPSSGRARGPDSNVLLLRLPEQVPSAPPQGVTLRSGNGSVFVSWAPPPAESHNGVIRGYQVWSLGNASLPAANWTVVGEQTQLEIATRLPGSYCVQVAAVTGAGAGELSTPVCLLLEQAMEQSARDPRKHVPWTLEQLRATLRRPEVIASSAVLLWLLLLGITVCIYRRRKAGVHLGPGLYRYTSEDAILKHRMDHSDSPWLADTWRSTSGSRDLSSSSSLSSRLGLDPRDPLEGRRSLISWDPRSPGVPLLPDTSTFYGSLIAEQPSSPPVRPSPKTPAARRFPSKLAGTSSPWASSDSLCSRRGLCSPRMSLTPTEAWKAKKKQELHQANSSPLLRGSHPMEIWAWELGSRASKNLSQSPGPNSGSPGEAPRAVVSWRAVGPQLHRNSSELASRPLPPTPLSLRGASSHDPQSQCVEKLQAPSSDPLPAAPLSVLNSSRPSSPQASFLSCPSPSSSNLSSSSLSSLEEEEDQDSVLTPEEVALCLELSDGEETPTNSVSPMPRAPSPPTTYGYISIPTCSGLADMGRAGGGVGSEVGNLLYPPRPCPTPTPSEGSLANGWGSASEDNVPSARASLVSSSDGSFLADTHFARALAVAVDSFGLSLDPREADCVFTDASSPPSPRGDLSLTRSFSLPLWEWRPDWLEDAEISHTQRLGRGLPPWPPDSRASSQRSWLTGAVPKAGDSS
In words: FACS binding to MS1 cells. The class given is cell-based.

Assay [4] deals with HUVEC. In words: Bead outgrowth assay, HUVEC tube elongation. The assay is classed as cell-based, human. Particulars: 50 μg/ml antibody, versus control antibody E25. Here is the method:
For the bead outgrowth assay, dextran-coated Cytodex 3 microcarrier beads (Amersham) were incubated with HUVECs (400 cells per bead) in EGM-2, overnight at 37° C. and 5% CO2. To induce clotting, 0.5 ml cell-coated beads in PBS with 2.5 μg/ml fibrinogen (200 beads/ml) was added into one well of a 24-well tissue culture plate containing 0.625 units thrombin and incubated for 5 min at room temperature and then for 20 min at 37° C. The clot was equilibrated in EGM-2 for 30 min at 37° C. The medium was then replaced with EGM-2 containing skin fibroblast cells (Detroit 551, 20,000 cells/ml). Antibodies (50 μg/ml) were added to each well, and the assay was monitored for 8 days with change in medium every alternate day. Images of the beads were captured by an inverted microscope, and concentric circles spaced at 100, 200, and 300 μm were drawn around the bead in each image. The number of vessels crossing each circle was counted 10-12 beads were used per condition for quantification (Nakatsu et al., Microvascular Research 66: 102-112 (2003)).

The target of assay [5] is T2, human Robo4 expressed endogenously in HUVEC cells (Homo sapiens, UniProt Q8WZ75).
T2 construct: endogenous in cells; host or cells: HUVEC
T2 sequence (Q8WZ75 28-1007): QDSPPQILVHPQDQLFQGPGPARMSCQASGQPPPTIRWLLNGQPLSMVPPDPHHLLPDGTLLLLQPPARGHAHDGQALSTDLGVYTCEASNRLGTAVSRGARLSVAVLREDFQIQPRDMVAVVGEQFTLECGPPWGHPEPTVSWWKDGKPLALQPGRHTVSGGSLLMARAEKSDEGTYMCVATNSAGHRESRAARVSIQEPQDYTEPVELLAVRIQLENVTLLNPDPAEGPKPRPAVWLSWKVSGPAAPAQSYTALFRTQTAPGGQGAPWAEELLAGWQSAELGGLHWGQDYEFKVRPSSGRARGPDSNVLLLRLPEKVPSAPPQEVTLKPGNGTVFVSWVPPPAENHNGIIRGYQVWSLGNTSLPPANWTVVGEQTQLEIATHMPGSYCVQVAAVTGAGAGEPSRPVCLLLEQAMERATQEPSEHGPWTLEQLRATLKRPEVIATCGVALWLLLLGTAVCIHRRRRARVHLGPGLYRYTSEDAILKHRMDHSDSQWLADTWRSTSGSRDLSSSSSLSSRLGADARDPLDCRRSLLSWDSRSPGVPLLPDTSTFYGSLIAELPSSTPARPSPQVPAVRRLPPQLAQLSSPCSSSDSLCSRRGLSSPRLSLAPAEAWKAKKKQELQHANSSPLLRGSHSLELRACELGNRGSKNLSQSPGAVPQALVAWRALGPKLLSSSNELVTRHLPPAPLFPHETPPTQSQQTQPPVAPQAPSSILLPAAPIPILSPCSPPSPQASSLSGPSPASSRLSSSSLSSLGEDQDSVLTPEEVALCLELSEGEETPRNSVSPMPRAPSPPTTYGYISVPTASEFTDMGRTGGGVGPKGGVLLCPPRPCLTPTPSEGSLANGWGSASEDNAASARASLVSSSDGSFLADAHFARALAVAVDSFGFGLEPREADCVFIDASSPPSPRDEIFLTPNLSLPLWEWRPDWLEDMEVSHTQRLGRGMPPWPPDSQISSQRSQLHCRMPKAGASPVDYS
In words: FACS binding to HUVEC cells. The class given is cell-based.

In a further assay the target is T3, human Robo4 (Homo sapiens, UniProt Q8WZ75).
T3 construct: made in house; host or cells: CHO cells (transient transfection, vector pRK5)
T3 sequence (Q8WZ75 with tags, fused parts or gaps): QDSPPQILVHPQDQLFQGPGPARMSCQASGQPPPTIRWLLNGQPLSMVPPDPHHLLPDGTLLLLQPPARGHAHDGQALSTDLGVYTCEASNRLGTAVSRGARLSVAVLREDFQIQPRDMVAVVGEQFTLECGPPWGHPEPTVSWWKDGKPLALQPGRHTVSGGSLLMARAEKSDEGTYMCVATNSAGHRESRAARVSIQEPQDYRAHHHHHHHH
In words: BIAcore surface plasmon resonance binding analysis, human Robo4. Particulars: Human Robo4, immobilized Fab, 25° C. Here is the method: (§2) Affinity determinations were performed by surface plasmon resonance using a BIAcore™ 2000 system (BIAcore, Piscataway, N.J.). Robo4-His was immobilized (˜1000 response units (RU)) on a CM5 chip and varied concentrations of Fab (4 to 500 nM) in PBST were injected. After each injection the chip was regenerated using 100 mM HCl.
(§3) The binding affinity of three phage-derived anti-Robo4 antibodies for soluble Robo4 extracellular domain (ECD) was determined by surface plasmon resonance measurement using a BIACORE® 3000 system (Biacore, Inc., Piscataway, N.J.). […] Briefly, carboxymethylated dextran biosensor chips (CM5, Biacore Inc.) were activated with N-ethyl-N′-(3-dimethylaminopropyl)-carbodiimide hydrochloride (EDC) and N-hydroxysuccinimide (NHS) according to the supplier's instructions. These activated chips were coated with anti-Robo Fab by dilution to 5 ug/ml with 10 mM sodium acetate, pH 4.8, before injection at a flow rate of 5 μl/minute to achieve approximately 500 response units (RU) of coupled antibody. Next, 1M ethanolamine was injected to block unreacted groups. For kinetics measurements, two-fold serial dilutions of human or mouse-ECD-His tagged soluble antigen (approximately 500 nM to approximately 7.8 nM) were injected in PBS with 0.05% Tween® 20 at 25° C. at a flow rate of 25 μl/min. Binding response was corrected by subtracting the RU from a blank flow cell. Association rates (kon) and dissociation rates (koff) were calculated using a simple one-to-one Langmuir binding model (BIAevaluation Software version 3.2). The equilibrium dissociation constant (KD) was calculated as the ratio kdissociation/kassociation.

The target of the next assay is T4, Murine Robo4 (Mus musculus, UniProt Q8C310).
T4 construct: Murine Robo4 (M1 to H232) was cloned into pRK5 as fusion to a C-terminal Histidine tag only; made in house; host or cells: CHO cells (transient transfection, vector pRK5)
T4 sequence (Q8C310 28-232): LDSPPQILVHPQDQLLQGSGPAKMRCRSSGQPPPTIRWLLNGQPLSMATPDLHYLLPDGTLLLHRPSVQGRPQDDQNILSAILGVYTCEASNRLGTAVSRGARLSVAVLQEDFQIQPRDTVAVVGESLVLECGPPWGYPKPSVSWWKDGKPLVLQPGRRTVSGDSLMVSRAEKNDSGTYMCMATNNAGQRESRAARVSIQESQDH
In words: BIAcore surface plasmon resonance binding analysis, murine Robo4. Here is the method: as §2, §3

The subject of assay [6] is HUVEC. In words: HUVEC cellular migration assay. The assay is classed as cell-based, human. To be noted: HUVECs pre-incubated with VEGF, 16 hours. On the procedure:
Robo4-Fc and Robo4-His were contacted with vascular ECs using a HUVEC migration assay and in the presence or absence of VEGF.
Endothelial cell migration was not blocked by anti-Robo4 antibody in an in vitro assay using human umbilical vascular endothelial cells (HUVEC) cellular migration assay. HUVECs endogenously express human Robo4. The assay was performed as follows. HUVECs were pre-incubated for 2 hours with VEGF.

[7] abbreviates: Murine Robo4, immobilized Fab, 25° C.

B1: YW71.22: phage-derived anti-Robo4 antibody, heavy chain SEQ ID NO:169, light chain SEQ ID NO:170 (antibody)
heavy: EVQLVESGGGLVQPGGSLRLSCAASGFTINGYYIHWVRQAPGKGLEWVGFIYPAGGDTDYADSVKGRFTISADTSKNTAYLQMNSLRAEDTAVYYCARLIGNKFGWSSYGMDYWGQGTLVTVSS[not shown - human IgG1 constant region]
light: DIQMTQSPSSLSASVGDRVTITCRASQDVSTAVAWYQQKPGKAPKLLIYSASFLYSGVPSRFSGSGSGTDFTLTISSLQPEDFATTYCQQSYTTPPTFGQGTKVEIKRTVAAPSVFIFPPSDEQLKSGTASVVCLLNNFYPREAKVQWKVDNALQSGNSQESVTEQDSKDSTYSLSSTLTLSKADYEKHKVYACEVTHQGLSSPVTKSFNRGEC
modifications: antibody heavy chain; antibody light chain
On to B1, for which the tumor growth inhibition result in assay [1] is “not inhibited”. Also, the “reduction of tumor growth” value in assay [2] was “no reduction of tumor growth”. For the same molecule, the “binding to murine Robo4 on MS1 cells (FACS)” value in assay [3] was “cross-reacts with human and murine Robo4”. Also, the HUVEC tube elongation result with HUVEC [4] (8 days) is “significantly inhibits HUVEC tube elongation”. The “reduction of number of tubes with a length of 300 μm or more” value in the assay on HUVEC [4] was 60%. The “binding to human Robo4 on HUVEC cells (FACS)” value in assay [5] was “cross-reacts with human and murine Robo4”. In the assay with human Robo4, the Kd is 13 nM, the ka came out at 2.90E+05 and the kd amounted to 3.70E−03. Besides, in the assay with Murine Robo4 (BIAcore), the “cross-reactivity with human and mouse Robo4” value was “cross-reacts with human and mouse Robo4”. For the same molecule, in the assay with Murine Robo4 (setting [7]), binding was put at a Kd of 6.2 nM, the ka was found to be 4.50E+05 and the kd amounted to 2.80E−03. The “blocking of endothelial cell migration” value in the assay on HUVEC [6] is “not blocked”.
